Here are results for four compounds from PubChem BioAssay AID1469 (National Center for Advancing Translational Sciences (NCATS), 2008).

Structures are written as SMILES. In all, about 280,000 compounds went through this assay and about 180 (0.064%) were called active. Calls follow the shape of the dose curve; as a rule, active = well fitted inhibition curve with a large enough effect; inconclusive = small, poorly fitted or top-dose-only effect, or effect the other way; inactive = flat fitted curve, though single readings scatter. The list shows a part of the results, in another mix than the full data.
Potency is read from the fitted curve at half-maximal effect.

Chain of UniProt P10828 (P10828 whole entry, looked up): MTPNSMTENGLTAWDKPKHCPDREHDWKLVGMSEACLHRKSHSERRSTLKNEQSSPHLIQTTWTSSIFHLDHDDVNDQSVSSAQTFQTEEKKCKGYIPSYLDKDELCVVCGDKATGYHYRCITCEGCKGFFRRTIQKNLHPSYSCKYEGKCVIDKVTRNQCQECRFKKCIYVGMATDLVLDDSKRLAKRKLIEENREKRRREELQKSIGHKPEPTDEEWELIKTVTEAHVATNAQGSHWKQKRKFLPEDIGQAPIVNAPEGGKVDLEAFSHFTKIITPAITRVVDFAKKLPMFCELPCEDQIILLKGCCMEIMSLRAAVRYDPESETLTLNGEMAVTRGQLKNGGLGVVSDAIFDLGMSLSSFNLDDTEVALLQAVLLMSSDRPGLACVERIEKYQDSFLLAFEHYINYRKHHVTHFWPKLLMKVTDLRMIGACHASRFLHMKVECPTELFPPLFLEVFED

The target of the assay is Thyroid hormone receptor beta (Homo sapiens) (UniProt P10828). In words: qHTS for Inhibitors of the Interaction of Thyroid Hormone Receptor and Steroid Receptor Coregulator 2. Also: nearly all actives have a fitted effect of over 50% in size.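 As to activity change, negative = inhibition: plate controls were bound peptide for no effect and peptide without receptor for full effect.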 As to conditions: TRbeta-SRC2 peptide binding, fluorescence polarization, receptor liganded with 1 µM T3; series mostly up to 106 µM; activity change, negative = inhibition: at the top concentration. An excerpt:
NIH Molecular Libraries Probe Production Network [MLPCN]
NIH Chemical Genomics Center [NCGC]
Assay Provider: R. Kip Guy, St. Jude Children's Research Hospital
Thyroid receptor (TR) regulates many homeostatic processes including basal metabolism, cardiovascular function, body weight, and lipid trafficking. TR modulators are potential therapeutics for obesity and hyperlipidemias but current thyroid analogs have undesirable side effects, particularly cardiac stimulation. To identify inhibitors that specifically prevent the interaction of TR with the steroid receptor coregulator 2 (SRC2), a fluorescence polarization assay was screened. This assay detects interaction of the ligand-binding domain of human TRb with a Texas Red labeled SRC2 peptide, corresponding to a 20 amino acid region of the nuclear receptor interaction domain (Arnold et al., 2006). Small molecule inhibitors that block the interaction of TR and SRC2 are detected by a decrease in fluorescence polarization.
Arnold, L. A.; Estebanez-Perpina, E.; Togashi, M.; Shelat, A.; Ocasio, C. A.; McReynolds, A. C.; Nguyen, P.; Baxter, J. D.; Fletterick, R. J.; Webb, P.; Guy, R. K. A high-throughput screening method to identify small molecule inhibitors of thyroid hormone receptor coactivator binding. Sci STKE 2006, p 13.
NCGC Assay Protocol Summary:
For screening, 5 uL/well 0.6 uM TRb and 20 nM SRC2 Texas Red in protein buffer (20mM Tris hydrochloride, 100mM NaCl, 10% glycerol, 1mM EDTA, 0.01% NP-40, 1mM DTT, 1uM T3 and 5% DMSO) was dispensed into black solid 1536-well plates (Grenier) using a solenoid-based dispenser. Following transfer of 23 nL compound or DMSO vehicle by a pin tool, the plates were centrifuged 15 s at 1000 RPM and incubated 5 hr at ambient temperature. The plates were read by an Envision (Perkin Elmer) to detect fluorescence polarization of SRC2 Texas Red (555 nm excitation and 632 nm emission). Data were normalized to unbound (all components except TRb) and bound SRC2 Texas Red controls. In this assay, we provide % activity data for each concentration as well as potencies for the active compounds.
Keywords: NIH Roadmap, MLPCN, MLI, MLSMR, qHTS, NCGC, qHTS, thyroid hormone receptor, steroid receptor coactivator, fluorescence polarization
(In qHTS, concentration-response curves come from the screen itself.)
As for `c1ccc2c(c1)c1cccc3ccc4cccc2c4c31`, the “activity change, negative = inhibition” value was inactive: -3.74%.

Regarding `CN(C)[C@@H]1C(=O)C(C(N)=O)=C(O)[C@@]2(O)C(=O)C3=C(O)c4c(O)cccc4[C@@](C)(O)[C@H]3[C@H](O)[C@@H]12`, the Potency result is “inactive”.

In the case of `CC(=O)NC1N=C(C)N(c2ccccc2)C1=O` (centres undefined), the Potency is active: 31.6 µM.

In the case of `CN1CC[C@@]2(C)c3cc(O)ccc3N(C)[C@@H]12`, the “activity change, negative = inhibition” value is inactive: -10.6%.
